Patent US20140050743A1, “BINDING PROTEINS TO INHIBITORS OF COAGULATION FACTORS” (BAYER INTELLECTUAL PROPERTY GMBH, priority 2011, published 2014)

How the values were obtained:
[1] = tested on: rivaroxaban induced FXa inhibition; experiment: Functional neutralization of rivaroxaban in a biochemical Factor Xa activity assay; settings: Table 6; biochemical FXa-assay, 0.05 nM FXa, 0.6 nM rivaroxaban; read-out: EC50
Experimental: Serial dilutions of test compounds in assay buffer (50 mM HEPES pH 7.8, 250 mM NaCl, 6 mM CaCl2, 0.01% Brij35, 1 mM glutathione, 4 mM EDTA, 0.05% bovine serum albumin) were performed (typical concentrations ranging from 5 μM to 0.0007 μM).
20 μL of the diluted test compounds were placed in 384 well microtiter plates (Greiner, Frickenhausen, Germany), followed by the addition of 10 μL of a 1:400 dilution (250 μM) of the FXa substrate Pefafluor Xa (100 mM in DMSO, Loxo, Dossenheim, Germany) in assay buffer. […] Simultaneously, control reactions without rivaroxaban were started.
During incubation at 32° C., reaction progress curves were monitored using a fluorescence microtiter plate reader (e.g Tecan Ultra Evolution, Tecan Group Ltd., Mannedorf, Switzerland; excitation 360 nm, emission 465 nm).
The dilution of FXa was chosen that in the control reactions the reaction kinetics was linear, and less than 50% of the substrate was consumed (typical final FXa concentration in the assay: 0.05 nM). […] Results are depicted in FIG. 1.

[2] = Affinity by surface plasmon resonance (Biacore), immobilized Fab, analyte rivaroxaban; format: binding; settings: immobilized Fabs, SPR (Biacore)
Source text: “Binding affinity” refers to the strength of the sum total of noncovalent interactions between a single binding site of a molecule and its binding partner. Unless indicated otherwise, as used herein, “binding affinity” refers to intrinsic binding affinity which reflects a 1:1 interaction between members of a binding pair (e.g. an antibody and an antigen). The dissociation constant “KD” is commonly used to describe the affinity between a molecule (such as an antibody) and its binding partner (such as an antigen) i.e. how tightly a ligand binds to a particular protein. Ligand-protein affinities are influenced by non-covalent intermolecular interactions between the two molecules Affinity can be measured by common methods known in the art, including those described herein. In one embodiment, the “KD” or “KD value” according to this invention is measured by using surface plasmon resonance assays using a Biacore T100 instrument (GE Healthcare Biacore, Inc.) according to Example 5. The dissociation equilibrium constant (KD) was calculated based on the ratio of association (kon) and dissociation rated (koff) constants, obtained by fitting sensograms with a first order 1:1 binding model using Biacore Evaluation Software. Other suitable devices are BIACORE(R)-2000, a BIACORE (R)-3000 (BIAcore, Inc., Piscataway, N.J.), or ProteOn XPR36 instrument (Bio-Rad Laboratories, Inc.).
Binding affinities of Fab-fragments were determined by surface plasmon resonance analysis on a Biacore T100 instrument (GE Healthcare Biacore, Inc.). Fab fragments were diluted to a final concentration of 10 μg/ml in 10 mM sodium acetate, pH 4.5, and immobilized on a CM5 chip (GE Healthcare Biacore, Inc.) at levels of 3000-5000RU by amine-coupling chemistry for flow cells 2, 3 and 4, respectively. Flow cell 1 was used as a reference. […] Sensograms were generated after in-line reference cell correction followed by buffer sample subtraction. The dissociation equilibrium constant (KD) was calculated based on the ratio of association and dissociation rated constants, obtained by fitting sensograms with a first order 1:1 binding model using BiaEvaluation Software.

[3] = Affinity by surface plasmon resonance (Biacore), analyte SATI; format: binding; settings: Table 7; immobilized Fabs, SPR (Biacore)
[4] = Affinity by surface plasmon resonance (Biacore), analyte razaxaban; format: binding; settings: Table 7; immobilized Fabs, SPR (Biacore)
[5] = Affinity by surface plasmon resonance (Biacore), analyte apixaban; format: binding; settings: Table 7; immobilized Fabs, SPR (Biacore)
[6] = Affinity by surface plasmon resonance (Biacore), analyte compound from Example 1G; format: binding; settings: Table 7; immobilized Fabs, SPR (Biacore)
[7] = Affinity by surface plasmon resonance (Biacore), analyte edoxaban; format: binding; settings: Table 7; immobilized Fabs, SPR (Biacore)
[8] = ELISA-based activity assay of antibody variants without a competition step; format: binding; design: key: +++: Variants with an average ratio above reference plus 2×SD; +/−: variants with a ratio below reference minus 2×SD; ++: All variants with a performance in between both thresholds; −: Variants with a ratio below 0.5; settings: Table 10, multiple substitutions within M14-G07, variant to reference ratio (reference 2-fold improved over wt)
Experimental: (§1) To determine the activity of the mutated antibody variants on compound from Example 1K an equilibrium or dissociation limited ELISA assay format was used. Briefly, MTP plates (Nunc Maxisorp black, 460518) were coated with 4 μg/ml streptavidin (Calbiochem, 189730) diluted in coating buffer (Candor Bioscience GmbH, 121500) and incubated over night at 4° C. After washing with PBST, plates were blocked with 100% Smart Block (Candor Bioscience GmbH, 113500) in PBST for 1 h at room temperature and the washing step was repeated. Plates were incubated with compound from Example 1K at varying concentrations (0.3-200 nM) for 1 h at 37° C., washed with PBST and antibody fragments were immobilized by adding 25 μl of the crude bacterial cultures for 1 h at room temperature. After washing with PBST a competition step or the immediate detection was performed. […] For the detection of the residually bound Fabs a HRP-coupled anti-lambda antibody (Sigma, A5175) diluted in 10% Smart Block in PBST was added for 1 h at room temperature. After washing 10 μM Amplex Red (Invitrogen, A12222) were added and incubated for 10 to 30 min at room temperature followed by measurement of the fluorescence signal.
(§2) Provided in Table 9 are several examples of single and/or double amino acid substitutions introduced into the heavy and/or the light chain of M14-G07 (wt). Performance of the variants was analyzed in quadruples in the ELISA without a competition step and the FXa deinhibition assay (FXa DIA). In the ELISA, averages were calculated and normalized to the respective average expression level. Overall performance of variants was evaluated by comparing the variant to wt ratio from 2-3 independent experiments. […] Variants with average fluorescence counts below the negative control (non-expressing cells) plus 3×SD were considered as non-binding and marked with “−−” with none of the variants fulfilling this criteria. In the FXa deinhibition assay averages were calculated and overall performance of variants was evaluated by comparing the variant to wt ratio from 2-3 independent experiments. […]

[9] = as above; format: binding; design: key: ++: Variants with an average ratio above wt plus 2×SD (standard deviation of the ratio) were considered as improved; −: variants with a ratio below wt minus 2×SD were considered as reduced in their binding affinity; +/−: All variants with a performance in between both thresholds; −−: Variants with average fluorescence counts below the negative control (non-expressing cells) plus 3×SD were considered as non-binding
Experimental: as §1, §2

[10] = Table 6, analyte rivaroxaban, read-out: KD
[11] = read-out: KD Rivaroxaban, Table 7
[12] = Table 10, multiple substitutions within M14-G07, variant to reference ratio (reference 2-fold improved over wt)

- EC50 [1]: < 1000 nM
- Kd [2, 10]: < 500 nM
B1: M15-B07: antibody, Vh SEQ ID NO: 209, Vl SEQ ID NO: 210 (antibody, listed as Homo Sapiens, V domains shown)
VH: EVQLLESGGGLVQPGGSLRLSCAASGFTFSSYAMSWVRQAPGKGLEWVSGISGSGGGTYYADSVKGRFTISRDNSKNTLYLQMNSLRAEDTAVYYCAREGGTYYYGSGSYVLDYWGQGTLVTVTS
VL: QSVLTQPPSASGTPGQRVTISCSGSSSNIGSNYVYWYQQLPGTAPKLLIYRNNHRPSGVPDRFSGSKSGTSASLAISGLRSEDEADYYCAAWDDILSGWVFGGGTKLTVL

- Kd [3]: < 50 nM
- KD Razaxaban [4]: n.b.
- KD Apixaban [5]: n.b.
- EC50 [1]: < 500 nM
- Kd [6]: < 50 nM
- Kd [2, 10]: < 50 nM
- Kd [2, 11]: < 50 nM
- KD Edoxaban [7]: n.b.
B2: M18-G08: antibody, Vh SEQ ID NO: 217, Vl SEQ ID NO: 218 (antibody, listed as Homo Sapiens, V domains shown)
VH: EVQLLESGGGLVQPGGSLRLSCAASGFTFSNAWMSWVRQAPGKGLEWVSSISSSSGYIYYADSLKGRFTISRDNSKNTLYLQMNSLRAEDTAVYYCARVWRNHLDYWGQGTLVTVTS
VL: B1 VL with N28D, Y33T, Y35N, R51D, H54Q, A90Q, A91S, W92Y, D94S, I95S

- KD SATI [3]: n.b.
- KD Razaxaban [4]: n.b.
- KD Apixaban [5]: n.b.
- EC50 [1]: < 500 nM
- Kd [6]: > 1000 nM
- Kd [2, 10]: < 50 nM
- Kd [2, 11]: < 50 nM
- KD Edoxaban [7]: n.b.
B3: M14-G07: antibody, Vh SEQ ID NO: 207, Vl SEQ ID NO: 208 (antibody, listed as Homo Sapiens, V domains shown)
VH: EVQLLESGGGLVQPGGSLRLSCAASGFTFGDYAMSWVRQAPGKGLEWVSGISGSGGSTYYADSVKGRFTISRDNSKNTLYLQMNSLRAEDTAVYYCAREGETSFGLDVWGQGTLVTVTS
VL: QSVLTQPPSASGTPGQRVTISCSGSSSNIGSNYVYWYQQLPGTAPKLLIYDNNDRPSGVPDRFSGSKSGTSASLAISGLRSEDEADYYCVAWDDSLNGHWVFGGGTKLTVL

B4: M14-G07-36: antibody, Vh SEQ ID NO: 197, Vl SEQ ID NO: 198 (antibody, listed as Homo Sapiens, V domains shown)
VH: B3 VH with G30S, D31S, G105Y, T118S
VL: B3 VL with N32Y, D54Q, N97S
- ELISA [8]: +++

B5: M14-G07-39: antibody, Vh SEQ ID NO: 203, Vl SEQ ID NO: 204 (antibody, listed as Homo Sapiens, V domains shown)
VH: B3 VH with G30S, D31S, G105Y, T118S
VL: B3 VL
- ELISA [9, 12]: ++

B6: M14-G07-38: antibody, Vh SEQ ID NO: 201, Vl SEQ ID NO: 202 (antibody, listed as Homo Sapiens, V domains shown)
VH: B3 VH
VL: B3 VL with D54Q, N97S
- ELISA [8]: +/−

B7: M14-G07-40: antibody, Vh SEQ ID NO: 205, Vl SEQ ID NO: 206 (antibody, listed as Homo Sapiens, V domains shown)
VH: B3 VH with D31S, G105Y, T118S
VL: B3 VL with D54Q, N97S
- ELISA [8]: +/−

B8: M14-G07-35: antibody, Vh SEQ ID NO: 195, Vl SEQ ID NO: 196 (antibody, listed as Homo Sapiens, V domains shown)
VH: B3 VH with G30S, D31S, G105Y, T118S
VL: B3 VL with D54Q, N97S
- ELISA [9, 12]: ++*

B9: HC_D31S (antibody, V domains shown)
VH: EVQLLESGGGLVQPGGSLRLSCAASGFTFSSYQMTWIRQTPGKGLEWVSGVSWNGARTHYADSVKGRFTISRDNSKNTLYLQMNSLRAEDTAVYYCAKGDYLVYSAYYFDSWGQGTLVTVTS
VL: QSVLTQPPSASGTPGQRVTISCSGSSSNVGSNPVNWYQQLPGTAPKLLIYRNNQRPSGVPDRFSGSKSGTSASLAISGLRSEDEADYYCAAWDDRLNGWVFGGGTKLTVLGQ
- ELISA ([9]; Table 9, single and double substitutions within M14-G07, variant to wt ratio, normalized to expression level): +/−

Residue numbers refer to the chain shown, from its start. Marks after values point to notes of the source that are not given here. One block for each molecule: values may come before it.
